Some of the results follow.
B1: chr1:23637546:23637547:-_ENSG00000125944_ENST00000302271|hu_mus|FALSE|FALSE (ssRNA)
RNA: GGGAGUUCUACAGUCCGACGAUCGCCAUAAUAAUCUGGAGGGUAGCCAUAUCCACCUCUCCCUCCACGACCUCGGCCUCUCAUUGGAGGUGGCAUUCGGGGAGGAGGGUGAUAAUAAUAAUCUUCAUACGCAGUGCUUCUGGACAACAGAGGAUUGAGCAUCA
B2: chr2:179515052:179515053:+_ENSMUSG00000000305_ENSMUST00000000314|mus_hu|mus_mus_mus_hu_False|68_108 (ssRNA)
RNA: GGGAGUUCUACAGUCCGACGAUCGCUUUCCCGCGCAGUCACCGUGAACGCCACCUGCUCGGAGGGGAUCUUCAACUCCCGGGUGGCGAAGACUGUCCCAUCUGCCCCAACUUUGAAGUCCAUGCUGUUGGUCUCAUAUUGUGUCAACAGAGGAUUGAGCAUCA
B3: 8618895_8619015_1930_3pUTR_ENSMUSG00000057880_ENSMUST00000065987|mouse|control|control (ssRNA)
RNA: GGGAGUUCUACAGUCCGACGAUCCCAGGGUUGACAGAAAUAUGGCCUCAUGGCCUUUCCUAAGACAGUGUUCAAUGCUUACACAGAACUUCUGGGCUUUAACCAAUGGUCACCAUGAGCUCUGCAAGGAGCGAUCCUCAAACCCAACAGAGGAUUGAGCAUCA
B4: chr14:76815493:76815494:+_ENSMUSG00000022010_ENSMUST00000110888|mus_hu|FALSE|FALSE (ssRNA)
RNA: GGGAGUUCUACAGUCCGACGAUCGGGGAGGAAAAGCGAGAAAUGCCCACCUUCUCCGGCCAACUCCGAAGCCGCCUCAGCCCCCUCCUCCCGCCGCGUCGGCGGCCGCUGCAAAGCCCUCCCGGCCGCUCUGCACGGAGGCAGCAACAGAGGAUUGAGCAUCA
B5: chr11:130013608:130013609:+_ENSG00000084234_ENST00000528499|hu_mus|motif|central (ssRNA)
RNA: GGGAGUUCUACAGUCCGACGAUCUAGAGCAUGUGUGAGACAAUACAAUAGAAGUGGCAUUUCUAAUUUAAAAAAAGAAAACGGCAUCCAUCAGAUAUCUGCAAUAGAUCUUUUUCUUUCAUUUCACUUAAGGUUUAUAUAUCACAACAGAGGAUUGAGCAUCA
B6: chr1:39494447:39494448:+_ENSG00000168653_ENST00000372967|hu_mus|hu_hu_hu_mus_False|28_88 (ssRNA)
RNA: GGGAGUUCUACAGUCCGACGAUCGCACCGAGCGGCGUUCUUAUAGGGCUGUUCACCGCUUAGGAACAUAAAGUGCCGGUCCAGGCUGAUGCCCAGCUUUUUCUGUAUGUCCAAGAAAGGCAUGGCUCUGCAGUGCCCUUGUCACAACAGAGGAUUGAGCAUCA
B7: chr11:87793471:87793472:-_ENSMUSG00000020483_ENSMUST00000020775|mus_mus|mus_mus_mus_hu_False|38_68 (ssRNA)
RNA: GGGAGUUCUACAGUCCGACGAUCUGGACUUGAAAAUAAAAGAAUAAGCUGGAUCCCCCACCCCCCCACAGUGUCAACCCUACACGAGAGUUUUGAAUGAUUCAUAAGAAAAUCAGCAGCUCAAACGGCAAUGACCACCCCACCCAACAGAGGAUUGAGCAUCA
B8: chr7:140404665:140404666:+_ENSG00000090266_ENST00000247866|hu_hu|hu_hu_hu_mus_False|8_98 (ssRNA)
RNA: GGGAGUUCUACAGUCCGACGAUCUGCUCCUACUCGUAGGCUGAGUCUACAGUGUCAGUCCUCGUCAUCAGGAGGGAUUCCCAGUUCUUCAUCUGUCCACUGUGAAGGAUCUGGAUAUGAAAAGUGACCCAGCACCUCAUCCGACAACAGAGGAUUGAGCAUCA
B9: 62929326_62929446_2183_CDS_ENSG00000061987_ENST00000546600|human|control|control (ssRNA)
RNA: GGGAGUUCUACAGUCCGACGAUCAAGAGCAUAAUGGGGAGGCAGGGAACCUUUGCAUAUUGCAGUUAUAAAGGCAUCUCUUGAAGUUACAAGGCCCAGUCUUCCACAAAGAGCAGCCAUAGUCAGUUCAGCUUUUAAAAUAUUCAACAGAGGAUUGAGCAUCA
B10: 134014868_134015939_810_3pUTR_ENSG00000166086_ENST00000529443|human|control|control (ssRNA)
RNA: GGGAGUUCUACAGUCCGACGAUCGACUUCCAUCUCCUGCUCCUCACACCUGGCUGAGCCUGCGUCAUUGGAAGCAAUGCAGUAGUACUGCCCAGAGUCGUCCUUGUGAACAGCAGUGAACACCAAAGUGCCUGUUUCAGAGUUCAACAGAGGAUUGAGCAUCA
B11: chr12:48362563:48362564:+_ENSG00000134291_ENST00000256686|hu_hu|hu_hu_hu_mus_False|1_8 (ssRNA)
RNA: GGGAGUUCUACAGUCCGACGAUCUCCGUCAAGCCCUUCGAUAGACCCUUGCGGGGGAAACUGUAAUCACUUUGUAUGGGGAAGGAAAAGAAACGCCAAAAACUUUCCAAAAAGCGGGGGUGGGGUGUCCCAGGCCUUUGGGAACAACAGAGGAUUGAGCAUCA
B12: chr12:16048344:16048345:+_ENSG00000023734_ENST00000419869|hu_hu|FALSE|FALSE (ssRNA)
RNA: GGGAGUUCUACAGUCCGACGAUCAGAUCGUCCAUAAGUUAUAACCAAAAUCUCUCCCUCAGGAAUAUAUUCCAUACUACUAACAGACAUAUUAAAAUUUAGAGAUUUCACUUCUGUCAUAGUAGCAUGAUCCCAAAGUCGAACCAACAGAGGAUUGAGCAUCA
B13: chr15:76911001:76911002:-_ENSMUSG00000033565_ENSMUST00000166610|mus_mus|FALSE|FALSE (ssRNA)
RNA: GGGAGUUCUACAGUCCGACGAUCCUCAAGAGCAUGACAAAAGAAAACACACGUUUACAUUAGAUGUUCACCGUGCCCACUAUUGUUUCCUAUUUGAAAACAGUGCAAACAGGUAACUUAUGCUUUAAACACCAAGACCCCUUCCAACAGAGGAUUGAGCAUCA
B14: chr19:16212804:16212805:+_ENSG00000167460_ENST00000300933|hu_mus|hu_hu_hu_mus_False|28_98 (ssRNA)
RNA: GGGAGUUCUACAGUCCGACGAUCAACAAUUCUGGAGAAGAACAUCAAUGUAACAUGGAACAGCAUUAAAGCUCAGUCAGAAGGCACAUGGGCAACAAUGAUCACCCCCCAAGCAUUGCUUGGAAUGCUUAAAGACAAUCUGUUCAACAGAGGAUUGAGCAUCA

target: T1, UNK ZnF1-3 (human, UniProt Q9C0B0 31-174); experiment: nsRBNS (natural sequence RNA bind-n-seq); RBNS binding buffer (assumed for nsRBNS): 25 mM Tris pH 7.5, 150 mM KCl, 3 mM MgCl2, 0.01% Triton X-100, 500 ug/ml BSA, 20 U/ml SUPERase-In, 4 C; UNK is unkempt and MSI1 is Musashi-1; names of the RNAs are library labels; protein concentration not given here; high values mean tight binding
T1 sequence: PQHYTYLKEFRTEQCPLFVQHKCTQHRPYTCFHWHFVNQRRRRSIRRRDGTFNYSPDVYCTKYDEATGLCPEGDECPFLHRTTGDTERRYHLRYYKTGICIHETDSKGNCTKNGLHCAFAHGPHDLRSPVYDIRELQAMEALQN

Row | Binder | binding signal [enrichment R]
1 | B1 | 0.785
2 | B2 | 0.733
3 | B3 | 0.756
4 | B4 | 0.69
5 | B5 | 1.76
6 | B6 | 0.753
7 | B7 | 2.07
8 | B8 | 1.07
9 | B9 | 2.1
10 | B10 | 1.01
11 | B11 | 2.48
12 | B12 | 0.932
13 | B13 | 1.05
14 | B14 | 1.37

From article PMC12136788
